Experimental data published in PubChem BioAssay AID624417 (National Center for Advancing Translational Sciences (NCATS), 2012).
Among all 410,000 compounds or so, about 6,400 (1.6%) were called active. The shares of active, inactive and inconclusive entries below differ from those in the screen. Calls follow the shape of the dose curve; as a rule, active = well fitted inhibition curve with a large enough effect; inconclusive = small, poorly fitted or top-dose-only effect; inactive = no such curve, though single readings can be large or run the other way. Potencies of inconclusive entries are doubtful fits and often do not repeat.

The compounds below were run against Glucagon-like peptide 1 receptor (Homo sapiens) (UniProt P43220) (assay: qHTS of GLP-1 Receptor Inverse Agonists (Inhibition Mode)). Settings: HEK293 GLP-1R CRE-luciferase, luminescence, 24 h, GLP-1R form is constitutively active; activity change, negative = inhibition: at 38.3 µM (top of the series) unless noted.
UniProt P43220, sequence (P43220 whole entry, looked up): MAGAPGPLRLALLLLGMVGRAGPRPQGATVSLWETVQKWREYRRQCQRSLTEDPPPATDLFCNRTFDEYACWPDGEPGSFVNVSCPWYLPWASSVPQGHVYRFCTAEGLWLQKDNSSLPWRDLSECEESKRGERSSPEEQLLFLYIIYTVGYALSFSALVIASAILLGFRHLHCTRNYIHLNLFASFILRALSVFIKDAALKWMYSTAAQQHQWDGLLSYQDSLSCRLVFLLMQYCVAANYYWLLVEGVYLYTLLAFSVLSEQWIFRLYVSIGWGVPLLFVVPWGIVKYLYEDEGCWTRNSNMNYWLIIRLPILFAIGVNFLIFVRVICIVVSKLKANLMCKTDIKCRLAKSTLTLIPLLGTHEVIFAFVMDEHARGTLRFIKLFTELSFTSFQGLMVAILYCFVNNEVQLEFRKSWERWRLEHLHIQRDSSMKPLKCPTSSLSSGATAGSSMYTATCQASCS
Outline: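 qHTS in 1536-well format: reporter HEK293 cells expressing constitutive GLP-1R activity in DMEM + 10% Nu serum, 24 hr with compounds at 37 deg C, luminescence read after 12 min with detection reagent.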
% is scaled to controls: 0 for no effect and ±100 for the full control effect; potency is read from the fitted curve at half-maximal effect; tags tell the direction and shape of the fitted curve.
Also: nearly all actives have a fitted effect of over 55% in size.

Potency, inconclusive:
Cc1ccc(-c2noc(CCC(=O)NCCc3ccccc3Cl)n2)cc1 31.6 µM [inhibitor, partial curve, poor fit], O=C(CCC1CCCCC1)NCCS(=O)(=O)N1CCN(c2ccccc2)CC1 28.2 µM [inhibitor, single point], CN1CCC(=C(c2ccccc2)c2ccc(Br)cc2)CC1 10 µM [inhibitor, partial curve, poor fit], COc1ccc(CCN2C(=O)c3[nH]nc(-c4ccccc4O)c3C2c2ccc(OC)c(OC)c2)cc1 (stereo unspecified) 22.4 µM [inhibitor, single point], O=C1[C@H]2CCCC[C@H]2C(=O)N1CCCCN1CCN(c2nsc3ccccc23)CC1 15.8 µM [inhibitor, single point], COc1ccc(S(=O)(=O)N2CCOCC2)cc1NC(=O)CSc1n[nH]c(=O)n1C1CC1 22.4 µM [inhibitor, single point], CC(C)C(=O)N(Cc1cc2ccccc2[nH]c1=O)C(C)(C)C 10 µM [inhibitor, single point], CCOC(=O)c1ccc(N(CC2CO2)S(=O)(=O)c2ccc(C)cc2)cc1 (stereo unspecified) 28.2 µM [inhibitor, single point], O=C(CCc1nc2ccccc2c(=O)[nH]1)N1CCN(c2ccccc2Cl)CC1 10 µM [inhibitor, partial curve], O=C(O)CCc1ccc(-c2ccc(Br)cc2)n1-c1ccc(O)cc1 4.47 µM [inhibitor, full curve], Cn1cncc1C#Cc1ccc(N2C(c3ccsc3)=Cc3ccc(F)cc3C2c2c[nH]c3ccccc23)cc1 (stereo unspecified) 8.91 µM [inhibitor, partial curve, poor fit], CCOc1ccc(S(=O)(=O)N(C)c2ccc(OCC(=O)Nc3nccs3)cc2)cc1 8.91 µM [inhibitor, partial curve, poor fit], Cc1ccc(-c2nc(C(=O)NCc3ccccc3Cl)c3n2CCCCC3)cc1 14.1 µM [inhibitor, partial curve, poor fit], CCC(C)NCCCCOc1cc(C)cc(C(C)C)c1 (stereo unspecified) 12.6 µM [inhibitor, partial curve, poor fit], COc1cc(F)cc(-c2ccc3c(c2)c(-c2cccs2)c(-c2cc(OC)cc(OC)c2)n3C)c1 2.51 µM [inhibitor, partial curve], CCCN1C(=O)/C(=C/c2cc(C)n(C)c2C)SC1=Nc1ccc(OC)cc1 28.2 µM [inhibitor, single point], CCN(CCO)Cc1csc2ccc(C(C)(C)C)cc12 11.2 µM [inhibitor, single point], CN1C[C@@H]2C(c3ccccc3)C3(c4ccccc4)CC2(C3)[C@H]1c1ccccc1 (stereo partly specified) 10 µM [inhibitor, partial curve], Cc1cccc(C)c1NC(=O)CNC(=O)c1cn(-c2ccccc2)nc1-c1ccccc1 8.91 µM [inhibitor, partial curve, poor fit], C/C(=N/NC(=O)NC12CC3CC(CC(C3)C1)C2)c1ccccc1 2.82 µM [inhibitor, partial curve, poor fit], N#C/C(=C(/O)COC(=O)CCc1ccc(S(=O)(=O)N2CCOCC2)cc1)c1nc2ccccc2[nH]1 31.6 µM [inhibitor, partial curve, poor fit], O=c1c2ccccc2nc(/C=C/c2ccc3c(c2)OCO3)n1CCCO 3.16 µM [inhibitor, full curve], O=C(NNc1ccccc1Br)C(=O)n1ccc2ccccc21 0.708 µM [inhibitor, full curve, poor fit], Cc1c(Cl)ccc2c1NC(=O)[C@]21N[C@@H](Cc2ccccc2)[C@H]2C(=O)N(c3ccc(F)cc3)C(=O)[C@H]21 14.1 µM [inhibitor, partial curve, poor fit], COc1ccc(/C=C/c2nc3ccccc3c(=O)o2)cc1 0.891 µM [inhibitor, full curve, poor fit], CCC1(CC)Cc2ccccc2-c2nc(NN)[nH]c(=O)c21 14.1 µM [inhibitor, single point], C=CCNC(=O)c1onc(CSc2ccccc2CC)c1C(=O)O 6.31 µM [inhibitor, partial curve, poor fit], Cc1cc(Cl)c(OCCOCCN2CCCCC2)c(Br)c1 12.6 µM [inhibitor, partial curve, poor fit], Brc1cccc(CN2CCN(c3ncccn3)CC2)c1 22.4 µM [inhibitor, single point]

Activity change, negative = inhibition, inactive:
COC(=O)c1cc(C)nc2c1c(=O)nc(SCc1ccccc1C)n2C1CC1 -5.7%, CCc1nn(CCCC(=O)N2CCN(c3cccc(OC)c3)CC2)c(=O)c2cc3occc3n12 15.9%, CC1=C(C(=O)OC2CCCCCCC2)C(c2cc3c(cc2Br)OCO3)CC(=O)N1 (stereo unspecified) 0%, CCC(=O)Oc1ccc(C2Nc3ccccc3-c3nnc(SC)nc3O2)cc1 (stereo unspecified) 4.71%, CC(c1ccncn1)N(C)Cc1nc(Cc2ccccc2F)no1 (stereo unspecified) 10.3%, CCN(CC)C(=O)c1[nH]cnc1C(=O)NCC(=O)OC(C)(C)C -9.53%, Cc1ccc(-c2nn(-c3ccccc3)cc2CO)cc1 -23.2%, Cc1ccc(NC(=O)N2CCC(CN3CCCC3)CC2)c(C)c1 5.96%, COc1ccc(C(=O)O)cc1S(=O)(=O)N1CCN(c2ccccn2)CC1 4.22%, O=C(CCCn1c(=S)[nH]c2ccccc2c1=O)N1CCCCC1 5.31%, COc1cccc(C(C(=O)NCC2CCCO2)N(C(=O)Cn2nnc3ccccc32)c2ccccc2C(C)=O)c1OC (stereo unspecified) 6.6%, COc1ccc(C=O)c(OCc2cn(CC(=O)c3ccc(O)cc3)nn2)c1 8.06%
